# Laboratory results: the supplement of paper PMC8728848
# Some of the results follow.
# Columns and labels:
# Assay in all cases: glycan array binding signal (z-score within array); higher = stronger binding
# Conditions in all cases: glycan notation: IUPAC condensed, linker removed
# [1] = target: Gal(b1-4)GlcNAc(b1-2)[Gal(b1-4)GlcNAc(b1-6)]Man(a1-6)[GlcNAc(b1-4)][Gal(b1-4)GlcNAc(b1-2)Man(a1-3)]Man(b1-4)GlcNAc(b1-4)GlcNAc
# Method in brief: (§1)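 Glycan array binding is given as a within-array Z-score, which can be read as non-binding when negative. The arrays, 3228 of them, came from the Consortium for Functional Glycomics database and were retained only where the protein sequence was available. Z-scores were averaged across arrays of the same protein sequence at different concentrations or buffers and across linkers.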
# [2] = target: Gal(b1-4)GlcNAc(b1-2)[Gal(b1-4)GlcNAc(b1-6)]Man(a1-6)[GlcNAc(b1-4)][Gal(b1-4)GlcNAc(b1-2)[Gal(b1-4)GlcNAc(b1-4)]Man(a1-3)]Man(b1-4)GlcNAc(b1-4)[Fuc(a1-6)]GlcNAc
# Method in brief: as §1
# [3] = target: Gal(b1-4)GlcNAc(b1-3)Gal(b1-3)GalNAc
# Method in brief: as §1
# [4] = target: Gal(b1-4)GlcNAc(b1-3)Gal(b1-3)GlcNAc
# Method in brief: as §1
# [5] = target: Gal(b1-4)GlcNAc(b1-3)Gal(b1-4)Glc
# Method in brief: as §1
# [6] = target: Gal(b1-4)GlcNAc(b1-3)Gal(b1-4)GlcNAc
# Method in brief: as §1
# [7] = target: Gal(b1-4)GlcNAc(b1-3)Gal(b1-4)GlcNAc(b1-2)Man(a1-3)[Gal(b1-4)GlcNAc(b1-3)Gal(b1-4)GlcNAc(b1-2)Man(a1-6)]Man(b1-4)GlcNAc(b1-4)GlcNAc
# Method in brief: as §1
# [8] = target: Gal(b1-4)GlcNAc(b1-3)Gal(b1-4)GlcNAc(b1-2)Man(a1-3)[Gal(b1-4)GlcNAc(b1-3)Gal(b1-4)GlcNAc(b1-2)Man(a1-6)]Man(b1-4)GlcNAc(b1-4)[Fuc(a1-6)]GlcNAc
# Method in brief: as §1
# [9] = target: Gal(b1-4)GlcNAc(b1-3)Gal(b1-4)GlcNAc(b1-2)[Gal(b1-4)GlcNAc(b1-3)Gal(b1-4)GlcNAc(b1-6)]Man(a1-6)[Gal(b1-4)GlcNAc(b1-3)Gal(b1-4)GlcNAc(b1-2)Man(a1-3)]Man(b1-4)GlcNAc(b1-4)GlcNAc
# Method in brief: as §1
# [10] = target: Gal(b1-4)GlcNAc(b1-3)Gal(b1-4)GlcNAc(b1-2)[Gal(b1-4)GlcNAc(b1-3)Gal(b1-4)GlcNAc(b1-6)]Man(a1-6)[Gal(b1-4)GlcNAc(b1-3)Gal(b1-4)GlcNAc(b1-2)Man(a1-3)]Man(b1-4)GlcNAc(b1-4)[Fuc(a1-6)]GlcNAc
# Method in brief: as §1
# [11] = target: Gal(b1-4)GlcNAc(b1-3)Gal(b1-4)GlcNAc(b1-3)Gal(b1-4)GlcNAc
# Method in brief: as §1
# [12] = target: Gal(b1-4)GlcNAc(b1-3)Gal(b1-4)GlcNAc(b1-3)Gal(b1-4)GlcNAc(b1-2)Man(a1-3)[Gal(b1-4)GlcNAc(b1-3)Gal(b1-4)GlcNAc(b1-3)Gal(b1-4)GlcNAc(b1-2)Man(a1-6)]Man(b1-4)GlcNAc(b1-4)GlcNAc
# Method in brief: as §1
# [13] = target: Gal(b1-4)GlcNAc(b1-3)Gal(b1-4)GlcNAc(b1-3)Gal(b1-4)GlcNAc(b1-2)Man(a1-3)[Gal(b1-4)GlcNAc(b1-3)Gal(b1-4)GlcNAc(b1-3)Gal(b1-4)GlcNAc(b1-2)Man(a1-6)]Man(b1-4)GlcNAc(b1-4)[Fuc(a1-6)]GlcNAc
# Method in brief: as §1
# [14] = target: Gal(b1-4)GlcNAc(b1-3)Gal(b1-4)GlcNAc(b1-3)Gal(b1-4)GlcNAc(b1-2)[Gal(b1-4)GlcNAc(b1-3)Gal(b1-4)GlcNAc(b1-3)Gal(b1-4)GlcNAc(b1-6)]Man(a1-6)[Gal(b1-4)GlcNAc(b1-3)Gal(b1-4)GlcNAc(b1-3)Gal(b1-4)GlcNAc(b1-2)Man(a1-3)]Man(b1-4)GlcNAc(b1-4)[Fuc(a1-6)]GlcNAc
# Method in brief: as §1
# [15] = target: Gal(b1-4)GlcNAc(b1-3)Gal(b1-4)GlcNAc(b1-3)Gal(b1-4)GlcNAc(b1-3)Gal(b1-4)GlcNAc(b1-2)Man(a1-3)[Gal(b1-4)GlcNAc(b1-3)Gal(b1-4)GlcNAc(b1-3)Gal(b1-4)GlcNAc(b1-3)Gal(b1-4)GlcNAc(b1-2)Man(a1-6)]Man(b1-4)GlcNAc(b1-4)GlcNAc
# Method in brief: as §1
# [16] = target: Gal(b1-4)GlcNAc(b1-3)Gal(b1-4)GlcNAc(b1-3)Gal(b1-4)GlcNAc(b1-3)Gal(b1-4)GlcNAc(b1-2)Man(a1-3)[Gal(b1-4)GlcNAc(b1-3)Gal(b1-4)GlcNAc(b1-3)Gal(b1-4)GlcNAc(b1-3)Gal(b1-4)GlcNAc(b1-2)Man(a1-6)]Man(b1-4)GlcNAc(b1-4)[Fuc(a1-6)]GlcNAc
# Method in brief: as §1
# [17] = target: Gal(b1-4)GlcNAc(b1-3)Gal(b1-4)GlcNAc(b1-3)Gal(b1-4)GlcNAc(b1-3)Gal(b1-4)GlcNAc(b1-2)[Gal(b1-4)GlcNAc(b1-3)Gal(b1-4)GlcNAc(b1-3)Gal(b1-4)GlcNAc(b1-3)Gal(b1-4)GlcNAc(b1-6)]Man(a1-6)[Gal(b1-4)GlcNAc(b1-3)Gal(b1-4)GlcNAc(b1-3)Gal(b1-4)GlcNAc(b1-3)Gal(b1-4)GlcNAc(b1-2)Man(a1-3)]Man(b1-4)GlcNAc(b1-4)[Fuc(a1-6)]GlcNAc
# Method in brief: as §1
# [18] = target: Gal(b1-4)GlcNAc(b1-3)Gal(b1-4)GlcNAc(b1-3)Gal(b1-4)GlcNAc(b1-3)Gal(b1-4)GlcNAc(b1-3)Gal(b1-4)GlcNAc(b1-2)Man(a1-3)[Gal(b1-4)GlcNAc(b1-3)Gal(b1-4)GlcNAc(b1-3)Gal(b1-4)GlcNAc(b1-3)Gal(b1-4)GlcNAc(b1-3)Gal(b1-4)GlcNAc(b1-2)Man(a1-6)]Man(b1-4)GlcNAc(b1-4)GlcNAc
# Method in brief: as §1
# [19] = target: Gal(b1-4)GlcNAc(b1-3)Gal(b1-4)GlcNAc(b1-3)Gal(b1-4)GlcNAc(b1-3)Gal(b1-4)GlcNAc(b1-3)Gal(b1-4)GlcNAc(b1-2)Man(a1-3)[Gal(b1-4)GlcNAc(b1-3)Gal(b1-4)GlcNAc(b1-3)Gal(b1-4)GlcNAc(b1-3)Gal(b1-4)GlcNAc(b1-3)Gal(b1-4)GlcNAc(b1-2)Man(a1-6)]Man(b1-4)GlcNAc(b1-4)[Fuc(a1-6)]GlcNAc
# Method in brief: as §1
# [20] = target: Gal(b1-4)GlcNAc(b1-3)Gal(b1-4)GlcNAc(b1-3)Gal(b1-4)GlcNAc(b1-3)Gal(b1-4)GlcNAc(b1-3)Gal(b1-4)GlcNAc(b1-2)[Gal(b1-4)GlcNAc(b1-3)Gal(b1-4)GlcNAc(b1-3)Gal(b1-4)GlcNAc(b1-3)Gal(b1-4)GlcNAc(b1-3)Gal(b1-4)GlcNAc(b1-6)]Man(a1-6)[Gal(b1-4)GlcNAc(b1-3)Gal(b1-4)GlcNAc(b1-3)Gal(b1-4)GlcNAc(b1-3)Gal(b1-4)GlcNAc(b1-3)Gal(b1-4)GlcNAc(b1-2)Man(a1-3)]Man(b1-4)GlcNAc(b1-4)[Fuc(a1-6)]GlcNAc
# Method in brief: as §1
# [21] = target: Gal(b1-4)GlcNAc(b1-3)Gal(b1-4)GlcNAc(b1-3)Gal(b1-4)GlcNAc(b1-3)Gal(b1-4)GlcNAc(b1-3)Gal(b1-4)GlcNAc(b1-3)Gal(b1-4)GlcNAc(b1-2)Man(a1-3)[Gal(b1-4)GlcNAc(b1-3)Gal(b1-4)GlcNAc(b1-3)Gal(b1-4)GlcNAc(b1-3)Gal(b1-4)GlcNAc(b1-3)Gal(b1-4)GlcNAc(b1-3)Gal(b1-4)GlcNAc(b1-2)Man(a1-6)]Man(b1-4)GlcNAc(b1-4)GlcNAc
# Method in brief: as §1
# [22] = target: Gal(b1-4)GlcNAc(b1-3)Gal(b1-4)GlcNAc(b1-3)GalNAc
# Method in brief: as §1
# [23] = target: Gal(b1-4)GlcNAc(b1-3)Gal(b1-4)GlcNAc(b1-3)[Gal(b1-4)GlcNAc(b1-3)Gal(b1-4)GlcNAc(b1-6)]GalNAc
# Method in brief: as §1
binder,measurement,setting,value
RBMC2 (Vibrio cholerae) (protein) KISVRSGFAIDAIGASASTLVGGTGGNLNAAVNVKDIKAIDLTWGKYYWGGYHLLALDFRMSNGSVISMGSKNYAYSKQTERFTVPAGSRIKGIKAWTAGWLLDGVQFELA,glycan array binding signal (z-score),[1],-0.322
same,glycan array binding signal (z-score),[2],-0.414
same,glycan array binding signal (z-score),[3],-0.334
same,glycan array binding signal (z-score),[4],-0.299
same,glycan array binding signal (z-score),[5],-0.422
same,glycan array binding signal (z-score),[6],-0.235
same,glycan array binding signal (z-score),[7],0.943
same,glycan array binding signal (z-score),[8],3.18
same,glycan array binding signal (z-score),[9],-0.097
same,glycan array binding signal (z-score),[10],-0.047
same,glycan array binding signal (z-score),[11],-0.368
same,glycan array binding signal (z-score),[12],1.48
same,glycan array binding signal (z-score),[13],2.19
same,glycan array binding signal (z-score),[14],-0.331
same,glycan array binding signal (z-score),[15],2.24
same,glycan array binding signal (z-score),[16],1.76
same,glycan array binding signal (z-score),[17],-0.204
same,glycan array binding signal (z-score),[18],2.36
same,glycan array binding signal (z-score),[19],1.79
same,glycan array binding signal (z-score),[20],-0.216
same,glycan array binding signal (z-score),[21],1.18
same,glycan array binding signal (z-score),[22],-0.363
same,glycan array binding signal (z-score),[23],-0.254
